# Results from the supplement of paper PMC11417369.
# The list shows a part of the results.
# Tested on: PfSIP2 AP2 domain 1 (GST-tagged)
# Assay: gcPBM binding intensity (ln(normalized median fluorescence intensity)); higher = stronger DNA binding
# Outline: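 Each value is the highest Masliner-normalised natural-log median intensity across replicate spots of either orientation of a probe. The probes were primer-extended double-stranded 36-bp intergenic genomic sequences on an Agilent 4 × 180k array, alongside negative controls, exposed for 1 h to GST-tagged P. falciparum DNA-binding domains expressed in E. coli. Bound protein was picked up with Alexa488 anti-GST antibody and scanned at 488 nm.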
row,Sequence,gcPBM binding intensity (ln)
1,TGTACAAATATGTTGAAAATAAAATTTCAATATATT [XGTACX_negctrl_site13],6.55
2,AACGAAAATAAGAAAAGTACAAAAAATACCAAATAA [XGTACX_site6171],6.92
3,ATATATGCATATATATGTACATATATATATATATAT [XGTACX_site7403],9.24
4,AATAAATAAAAAATTACACACATATATATAAATATA [CACACA_site3434],6.73
5,TAAATTATAAATTGCACACATATTTTTATATTTATA [CACACA_site2976],6.95
6,ATATTTTTAGATTCAGAAAAAAGATTCAACTTACTC [CACACA_negctrl_site1357],6.76
7,TATTTCATATGAAGAAGTACTATTAATAATTTCCTT [XGTACX_site6587],6.94
8,ATAATTATATACCATGCACACAAATATTCATACAGG [CACACA_site9343],8.19
9,AAGAACCATATTTAAACACACATACCTATATAAATA [CACACA_site7553],7.1
10,TTATGCATATATTATGCATGTAGTTTTAAATCACAT [TGCATGCA_site104],7.03
11,TATATACACATTTTTATACACACTTGTTTTATAAAA [CACACA_site8139],7.16
12,AAAAAATACATACATACACACATATTTATTTATATA [CACACA_site6554],7.05
13,GCACAAATATATATATATATATATATATATATATAT [GTGCAC_negctrl_site661],9.36
14,TATATATATTTATAATGTACACATATATGTAAATAT [XGTACX_site3695],7.42
15,TGCCCTAACCATACTACACACACTGCTCAAAATAGT [CACACA_site2219],7.26
16,TACAATATAAAATACACACACACAAACATATATTTA [CACACA_site5941],7.07
17,AAAATATATTATTATTGTACATATATTTTCATTTAC [XGTACX_site4593],7.01
18,TAAATATATTTATAAGCACACACTAATAAACCCACA [CACACA_site390],7.4
19,AATTTTTATACGGATACACACAAAAAAAAATAAAAA [CACACA_site897],7.1

row,Sequence,gcPBM binding intensity (ln)
1,TTTATTTTGTTTATGGTGCATTTTATGTAAATATAT,10.8
2,AATAAATAAATAAATAAATAAATATATATATATATA [GTGCAC_negctrl_site330],9.48
3,TAATGACAATAAAAATAAATAAATAAAAAAAAAAAA [TGCATGCA_negctrl_site321],6.63
4,ATATATTATCTGTACACACACATATAAGGGATTATA [CACACA_site4180],7.27
5,AAGGCATATATAATTTGTACATATTAAGAATTAGAT [XGTACX_site8660],7.11
6,AAGAAAATAAAAAGGTAAATATGTATAAATAAATAA [TGCATGCA_negctrl_site88],6.7
7,TGAAATAAAATTATTTGTACATATCGGAAAAAAAAA [XGTACX_site7131],6.77
8,TTTTTTGAAAATAAATGTACGAATTTTATATTTAAA [XGTACX_site2768],6.8
9,AAATTACCCATCCATACACACATATTTTTTTTAATT [CACACA_site2189],7.08
10,GATACAGATGGACACACACACATACATAAATACATA [CACACA_site5833],7.3
11,TATACGTATACCTATACACACATATATTTATTTATA [CACACA_site6716],7.1
12,TATATATATAACAGAATGCACTTTATATGTTCATAT [GTGCAC_site9880],8.35
13,GATATCCTTATATTTGCACACACACCCAATAAAATG [CACACA_site1028],7.62
14,AAAAAATACAGACACACACACACACGCATATAAATA [CACACA_site7644],7.15
15,TAATAAATTCATAATTGTACATTGAAGTATTATGCA [XGTACX_site5121],6.96
16,TTTTTTTATTTTGTATGTACATATCATTTGATATTC [XGTACX_site8449],6.98
17,AGTAGCGGCGGTATCATGCACACGTATAGATTGTAA [CACACA_site1587],7.14
18,ATTAAATCCGCACGCACACACACATATTAAGAAAAA [CACACA_site6062],7.84
19,GTTGAAAAAAATATATGTACGTATATATGTATGTAT [XGTACX_site8201],7.35

row,Sequence,gcPBM binding intensity (ln)
1,TTGTTTATATATATATGTACATATTTTAAGGCATCC [XGTACX_site6976],7.57
2,CCACGTATACGATGCACACGTATGCTTTATATATAG [CACACA_site4108],7.32
3,TTGGTAAATATATTTTGAATATAAGAAATATAGACG [CACACA_negctrl_site1634],7.13
4,ATTATTACTATATGTGTACACATCAACTGGTTTGAT [CACACA_site5563],7.58
5,TATTTTCAAAATGTTGTACACACAAAAAAAAAAAAA [CACACA_site8437],7.74
6,ATATACTTTTCAATGTGTACTTATGAATATATATGT [XGTACX_site7972],7.08
7,TATTTATAAATATGTGTGCACAATTTATTTTATAAT,9.67
8,TTATTTCTAACATGATGTACTTTTATATTATATAAT [XGTACX_site3574],7.01
9,TTTTTTTTATATATCTGTACATATATATATATATAT [XGTACX_site8280],8.84
10,CACTTAAAAAGCTAACGTACAAATACACATATATAA [XGTACX_site1851],7.04
11,AATATATATATAAATAATATACCTATATATTTTTTG [XGTACX_negctrl_site407],6.87
12,AAAAACAATTTAATCACACATATATGTCACAAAGAT [CACACA_site5043],7.13
13,ATATTAAATATTATCACACACATAATTATTTCCATA [CACACA_site2334],7.26
14,ATATATATATATATATGTACATACATATTGTTTGGT [XGTACX_site2284],9.3
15,CAAAATATTTTTTCCTGTACATAATTCCTATTTCAC [XGTACX_site3590],7.14
16,ATATAATAATATGGTTGTACATAAATAACACATGAA [XGTACX_site6592],7.1
17,TAATAATAGAAACACACACACATAGACATATATATA [CACACA_site1307],7.31
18,ATGATTATACAAAATATACACACGTGTAGACAAATA [CACACA_site1175],7
19,TATATTTCATTATATTGTACAAAATATATATATTAT [XGTACX_site4644],7.09
